Laboratory results: patent US20260200947A1, “FUSED CYCLIC COMPOUNDS AND USE THEREOF” (Jacobio Pharmaceuticals Co., Ltd., priority 2022, published 2026)

Columns and labels:
[1] = tested on: AsPC-1 cells (K-Ras G12D)

Row | Structure (SMILES) | IC50 (SW620 cells (K-Ras G12V)) | IC50 [1] | IC50 (AGS cells (K-Ras G12D))
1 | C#Cc1c(F)ccc2cc(N)cc(-c3nc4c5c(nc(OC[C@@]67CCCN6C[C@H](F)C7)nc5c3F)N3[C@@H](CC)CCOC[C@H]3CO4)c12 [Compound 65] | 13.6 nM | 57.7 nM | 
2 | C#Cc1c(F)ccc2cc(N)cc(-c3nc4c5c(nc(OC[C@@]67CCCN6C[C@H](F)C7)nc5c3F)N3CCCCC(C#N)C3N4C)c12 (stereo partly drawn) [Compound 101] | 199 nM | 656 nM | 
3 | N#Cc1c(N)sc2c(F)ccc(-c3cc4c5c(nc(OC[C@@]67CCCN6C[C@H](F)C7)nc5c3F)N3CCCOC[C@H]3CO4)c12 [Compound 161] | 25.1 nM | 64.4 nM | 18.5 nM
4 | C#Cc1c(F)ccc2cc(N)cc(-c3nc4c5c(nc(OC[C@@]67CCCN6C[C@H](F)C7)nc5c3F)N3CCCC[C@@H](O)[C@H]3N4C)c12 [Compound 110] | 106 nM | 324 nM | 30.7 nM
5 | C#Cc1c(F)c(F)cc2cc(N)cc(-c3nc4c5c(nc(OC[C@@]67CCCN6C[C@H](F)C7)nc5c3F)N3CCCOC[C@H]3CO4)c12 [Compound 8] | 5.84 nM | 79.4 nM | 
6 | C#Cc1c(F)ccc2cc(N)cc(-c3nc4c5c(nc(OC[C@@]67CCCN6CC(=C)C7)nc5c3F)N3CCCOC[C@H]3N4C)c12 [Compound 125] | 2.59 nM | 15.9 nM | 3.67 nM
